Data from patent US11707533B2, “Antibody-drug conjugate comprising antibody against human ROR1 and use for the same” (LegoChem Biosciences, Inc., priority 2019, dated 2023).
Numbering of substitutions follows the chain as printed.

B1: A2F2: anti-ROR1 antibody clone, VH SEQ ID NO 44, VL SEQ ID NO 52; IgG chains SEQ ID NOs 60 and 68 (antibody)
heavy: EVQLLESGGGLVQPGGSLRLSCAASGFTFSDYYMSWVRQAPGKGLEWVSSISPDGSNTYYADSVKGRFTISRDNSKNTLYLQMNSLRAEDTAVYYCAKNLRAFDYWGQGTLVTVSS[human IgG1 constant region not printed]
light: QSVLTQPPPASGTPGQRVTISCSGSSSNIGSNTVYWYQQLPGTAPKLLIYANSQRPSGVPDRFSGSKSGTSASLAISGLRSEDEADYYCGSWDYSLSGYVFGGGTKLTVLGQPKAAPSVTLFPPSSEELQANKATLVCLISDFYPGAVTVAWKADSSPVKAGVETTTPSKQSNNKYAASSYLSLTPEQWKSHRSYSCQVTHEGSTVEKTVAPAECS
B2: A2F3: anti-ROR1 antibody clone, VH SEQ ID NO 45, VL SEQ ID NO 53; IgG chains SEQ ID NOs 61 and 69 (antibody)
heavy: EVQLLESGGGLVQPGGSLRLSCAASGFTFSSYDMSWVRQAPGKGLEWVSWISPGGGSKYYADSVKGRFTISRDNSKNTLYLQMNSLRAEDTAVYYCARVNGRFDYWGQGTLVTVSS[human IgG1 constant region not printed]
light: B1 light with P9S, S31N, T33N, Y35S, N52D, Q54H, G90A, S91T
B3: CC9: anti-ROR1 antibody clone, VH SEQ ID NO 47, VL SEQ ID NO 55; IgG chains SEQ ID NOs 63 and 71 (antibody)
heavy: EVQLLESGGGLVQPGGSLRLSCAASGFTFSSYDMSWVRQAPGKGLEWVSGISHGSGNKYYADSVKGRFTISRDNSKNTLYLQMNSLRAEDTAVYYCAKRLSLRRRPSYYSDNAMDVWGQGTLVTVSS[human IgG1 constant region not printed]
light: B1 light with P9S, S23T, S31N, T33A, Y35N, A51Y, N52D, Q54N, S91A, Y94D
B4: DG6: anti-ROR1 antibody clone, VH SEQ ID NO 49, VL SEQ ID NO 57; IgG chains SEQ ID NOs 65 and 73 (antibody)
heavy: EVQLLESGGGLVQPGGSLRLSCAASGFTFSDYDMSWVRQAPGKGLEWVSVISPDGGSIYYADSVKGRFTISRDNSKNTLYLQMNSLRAEDTAVYYCARDVVECNMNPCSYDNAMDVWGQGTLVTVSS[human IgG1 constant region not printed]
light: B1 light with P9S, T33Y, Y35S, A51D, N52D, Q54H, S91A, Y94D
B5: D2B12: anti-ROR1 antibody clone, VH SEQ ID NO 50, VL SEQ ID NO 58; IgG chains SEQ ID NOs 66 and 74 (antibody)
heavy: EVQLLESGGGLVQPGGSLRLSCAASGFTFSNYDMSWVRQAPGKGLEWVSSISPSSGSSIYYADSVKGRFTISRDNSKNTLYLQMNSLRAEDTAVYYCAKAPGWCQAPSCYYDNAMDVWGQGTLVTVSS[human IgG1 constant region not printed]
light: B1 light with P9S, S31N, T33D, Y35S, A51D, N52D, S91A, Y94D
B6: BA6 M1: anti-ROR1 antibody clone, VH SEQ ID NO 99, VL SEQ ID NO 54; IgG chains SEQ ID NOs 101 and 70 (antibody)
heavy: EVQLLESGGGLVQPGGSLRLSCAASGFTFSNYDMSWVRQAPGKGLEWVSAIYHSGSSKYYADSVKGRFTISRDNSKNTLYLQMNSLRAEDTAVYYCARGGNAAWDTGFDYWGQGTLVTVSS[human IgG1 constant region not printed]
light: B1 light with P9S, T33D, Y35S, A51Y, N52D, S53N, Q54N, S91A, Y94D
B7: A2F2 M1: anti-ROR1 antibody clone, VH SEQ ID NO 98, VL SEQ ID NO 52; IgG chains SEQ ID NOs 100 and 68 (antibody)
heavy: B1 heavy with G55A
light: B1 light

These molecules were tested against T1, recombinant human ROR1-His (Homo sapiens, UniProt Q01973) (assay: Octet measurement of affinity of anti-ROR1 IgG antibody to ROR1). Conditions: 1:1 fitting, 30° C.
T1 construct: purchased Sino Biological 13968-H08H
T1 sequence (Q01973 30-406 limits assumed): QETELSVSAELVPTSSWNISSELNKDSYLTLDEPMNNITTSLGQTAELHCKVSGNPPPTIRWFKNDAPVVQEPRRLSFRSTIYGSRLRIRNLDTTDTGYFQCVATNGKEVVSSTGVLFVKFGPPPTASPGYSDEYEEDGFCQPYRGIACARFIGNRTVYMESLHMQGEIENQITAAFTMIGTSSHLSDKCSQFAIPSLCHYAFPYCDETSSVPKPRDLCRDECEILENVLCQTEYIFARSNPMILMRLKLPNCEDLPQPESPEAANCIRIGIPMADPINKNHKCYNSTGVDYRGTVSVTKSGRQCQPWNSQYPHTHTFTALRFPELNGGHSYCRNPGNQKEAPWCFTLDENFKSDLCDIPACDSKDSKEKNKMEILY
Type: binding
Description: A 96-well black microplate (greiner bio one) was mounted on a biosensor tray case, and 200 ? 10×KB or DW was added to each of 8 wells. Then Anti Penta His biosensors or 8 AR2G biosensors (ForteBio, USA) were inserted to hydrate for 10 minutes. 600 ? of the assay samples were diluted 2-fold or 3-fold to the appropriate assay concentrations, using 1×KB or 10×KB to 30 to 0.021 nM. To immobilize the antigen, recombinant human ROR1-His (Sino Biological, 13968-H08H) was diluted to 1 ? /ML with 10×KB or Sodium Acetate pH5 buffer. Immobilization was fixed at a threshold of 0.3 nm in the loading step. The association assay was carried out for 3 to 10 minutes, and the dissociation assay was carried out for 20 minutes. According to the Octet program template, the buffer was placed in a new 96-well black microplate according to order. As Baseline1, 200 ? 10×KB or DW was placed. Then 200 ? each of 1 ? /mL of the antigen to be loaded, the ROR1-HIS protein, was added. As Baseline2, 200 ? 10×KB or 1×KB was placed. Then to each well 30 to 0.021 nM of the diluted antibody and 200 ? each of 10×KB buffer or 1×KB corresponding to a reference blank was added. The temperature of the test plate was fixed at 30° C. After all of the samples were introduced, the equipment was started, and after the assay was completed, results were uploaded to the Octet Analysis 90 software, with KD values analyzed through 1:1 fitting. By obtaining KD values through the Octet assay method, it was confirmed that the anti-ROR1 antibody had strong binding potential to ROR1 antigen.

| Molecule | koff [s⁻¹] | kon [M⁻¹ s⁻¹] |
| --- | --- | --- |
| B1 | 0.000119 | 1.53e+06 |
| B2 | 3.31e-05 | 1.38e+06 |
| B3 | 0.000551 | 731000 |
| B4 | 0.000338 | 2.23e+06 |
| B5 | 0.000361 | 450000 |

The molecules below were run against T2, cell surface-expressed ROR1 (JeKo-1 cell line) (Homo sapiens, UniProt Q01973) (assay: Monoclonal phage antibody (scFv) flow cytometry on JeKo-1). Conditions: monoclonal scFv supernatant.
T2 construct: reacted with a cell line (JeKo-1) overexpressing ROR1; endogenous in cells; host or cells: JeKo-1
T2 sequence (Q01973 30-937): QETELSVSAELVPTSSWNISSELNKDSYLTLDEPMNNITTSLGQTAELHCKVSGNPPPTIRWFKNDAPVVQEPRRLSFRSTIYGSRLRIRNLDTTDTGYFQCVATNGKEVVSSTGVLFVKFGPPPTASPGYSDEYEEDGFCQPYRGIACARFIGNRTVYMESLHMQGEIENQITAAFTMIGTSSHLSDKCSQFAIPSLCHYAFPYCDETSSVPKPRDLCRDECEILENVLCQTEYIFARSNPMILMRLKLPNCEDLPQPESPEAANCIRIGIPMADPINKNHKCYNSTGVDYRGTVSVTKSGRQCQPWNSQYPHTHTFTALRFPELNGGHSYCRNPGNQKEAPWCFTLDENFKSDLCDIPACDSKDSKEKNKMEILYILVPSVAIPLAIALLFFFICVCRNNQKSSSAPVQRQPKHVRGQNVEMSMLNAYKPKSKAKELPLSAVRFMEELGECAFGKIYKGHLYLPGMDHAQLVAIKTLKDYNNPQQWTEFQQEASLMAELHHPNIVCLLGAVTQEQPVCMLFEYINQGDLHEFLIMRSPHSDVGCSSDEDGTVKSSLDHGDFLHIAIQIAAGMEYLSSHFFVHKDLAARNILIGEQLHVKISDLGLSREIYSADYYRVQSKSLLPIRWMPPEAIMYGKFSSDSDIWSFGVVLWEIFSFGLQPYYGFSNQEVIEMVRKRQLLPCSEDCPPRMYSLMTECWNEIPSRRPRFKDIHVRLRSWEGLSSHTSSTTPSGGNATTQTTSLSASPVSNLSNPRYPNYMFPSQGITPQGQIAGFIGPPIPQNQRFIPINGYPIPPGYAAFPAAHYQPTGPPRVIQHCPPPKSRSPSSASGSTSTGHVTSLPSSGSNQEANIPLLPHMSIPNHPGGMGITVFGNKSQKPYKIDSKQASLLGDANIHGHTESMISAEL
Type: binding
Description: Next, flow cytometry was used to screen clones binding to cell lines expressing ROR1. Specifically, 100 ? of the monoclonal scFv supernatant was reacted with a cell line (JeKo-1) overexpressing ROR1, then washed two times with PBS. After reacting with anti-HA-FITC antibody (Sigma, H7411) at 4° C. for 30 minutes, and washing twice with PBS then suspending in 200 ? PBS, a FACSCalibur flow cytometer (BD Bioscience) was used to screen clones binding to the JeKo-1 cell line (FIG. 2)

| Molecule | binding to cell lines expressing ROR1 |
| --- | --- |
| B6 | binding |
| B1 | binding |
| B2 | binding |
| B3 | binding |
| B4 | binding |
| B5 | binding |
| B7 | binding |

The molecules below were run against T3, recombinant human ROR1-Fc (Homo sapiens, UniProt Q01973) (assay: Monoclonal phage antibody (scFv) screening ELISA on ROR1-Fc). Conditions: monoclonal phage scFv supernatant.
T3 construct: made in house; host or cells: HEK 293E
T3 sequence (Q01973 30-406): as the sequence (Q01973 30-406 limits assumed) above
Type: binding
Description: Thereafter, the ELISA method was used as follows to select clones expressing monoclonal soluble scFv binding to ROR1-Fc antigen (Steinberger Rader and Barbas III 2000 Phage display vectors In: Phage Display Laboratory Manual 1sted Cold Spring Harbor Laboratory Press NY USA pp 119-1112). Specifically, 100 ng per well of recombinant human ROR1-Fc prepared in Embodiment 1-1 or FBMA-Fc was placed in a 96-well microtiter plate (Nunc-Immuno Plate, NUNC, USA), which was coated overnight at 4° C. BCMA-Fc is the protein used as a negative control, a recombinant protein where the extracellular domain of human BCMA protein is linked to human Fc. 200 μL each of 3% BSA was placed in each well, and blocked for 2 hours at 37° C.
The monoclonal phage supernatant was prepared by mixing 1:1 with 3% BSA, and 100 μL each of this mixture was loaded into the wells and reacted for 2 hours at 37° C. After washing 5 times with 300 μL PBST, anti-HA HRP binding antibody was added, reacted for 1 hour at 37° C., then washed 5 times with PBST. 100 μL TMB (Tetramethylbenzidine, Sigma, T0440) was added for color development, and then 50 μL 1N H2SO4 was added to stop the reaction. Absorbance was measured at 450 nm and 650 nm, and clones where the absorbance at 450 nm and 650 nm was 10 or higher when coated with 1 ? /mL ROR1 were screened (FIG. 1)

| Molecule | binding to recombinant human ROR1 protein |
| --- | --- |
| B6 | binding |
| B1 | binding |
| B2 | binding |
| B3 | binding |
| B4 | binding |
| B5 | binding |
| B7 | binding |

Each molecule was assayed on human mantle cell lymphoma cell line JeKo-1 (assay: Cancer growth suppression efficacy of anti-ROR1 IgG antibody in mouse tumor xenograft model). Conditions: Day 16; 10 mg/kg peritoneally twice a week, 5 administrations; JeKo-1 xenograft in SCID mice.
Type: in vivo
Description: Human cancer xenograft mice were prepared by transplanting 1×10^7 cells/head of the ROR1-expressing human mantle cell lymphoma cell line JeKo-1 to severe combined immunodeficiency mice (SCID). After xenograft, when tumor size reached 170 mm^3 on average (Day 1), the mice were divided into groups, and 5 types of anti-ROR-1 antibody were peritoneally injected into the mice using a 1 mL syringe twice a week at 10 mg/kg for a total of 5 administrations (Days 1, 4, 7, 10 and 14). The negative control group was peritoneally administered 10 mg/kg each of human IgG1 (InVivoPlus human IgG1 isotype control, BioXCell, BP0297) having a structure similar to that of ROR-1 antibody twice a week for a total of 5 administrations. The size of the tumors grafted to the mice and the weight of the mice were measured immediately before initial administration (Day 1), immediately before administration on each administration date thereafter, and at two days after final administration (Day 16).

| Molecule | % tumor growth inhibition (% TGI) compared to the human IgG1 antibody (HuIgG1) negative control [%] |
| --- | --- |
| B1 | 289 |
| B3 | 294 |
